# From PMC4336329 (PLoS ONE, 2015)
# Hit rate of the full screen: of about 310,000 compounds, about 2,200 (0.71%) showed an effect of 50% or more. The effect is printed as a negative number. Some of the results follow.
# Biological target: human ether-à-go-go-related gene (hERG) potassium channel (human, UniProt Q12809)
# Experiment: primary screen, population patch clamp on CHO cells stably expressing hERG
# Sequence of human ether-à-go-go-related gene (hERG) potassium channel (Q12809 whole entry, looked up): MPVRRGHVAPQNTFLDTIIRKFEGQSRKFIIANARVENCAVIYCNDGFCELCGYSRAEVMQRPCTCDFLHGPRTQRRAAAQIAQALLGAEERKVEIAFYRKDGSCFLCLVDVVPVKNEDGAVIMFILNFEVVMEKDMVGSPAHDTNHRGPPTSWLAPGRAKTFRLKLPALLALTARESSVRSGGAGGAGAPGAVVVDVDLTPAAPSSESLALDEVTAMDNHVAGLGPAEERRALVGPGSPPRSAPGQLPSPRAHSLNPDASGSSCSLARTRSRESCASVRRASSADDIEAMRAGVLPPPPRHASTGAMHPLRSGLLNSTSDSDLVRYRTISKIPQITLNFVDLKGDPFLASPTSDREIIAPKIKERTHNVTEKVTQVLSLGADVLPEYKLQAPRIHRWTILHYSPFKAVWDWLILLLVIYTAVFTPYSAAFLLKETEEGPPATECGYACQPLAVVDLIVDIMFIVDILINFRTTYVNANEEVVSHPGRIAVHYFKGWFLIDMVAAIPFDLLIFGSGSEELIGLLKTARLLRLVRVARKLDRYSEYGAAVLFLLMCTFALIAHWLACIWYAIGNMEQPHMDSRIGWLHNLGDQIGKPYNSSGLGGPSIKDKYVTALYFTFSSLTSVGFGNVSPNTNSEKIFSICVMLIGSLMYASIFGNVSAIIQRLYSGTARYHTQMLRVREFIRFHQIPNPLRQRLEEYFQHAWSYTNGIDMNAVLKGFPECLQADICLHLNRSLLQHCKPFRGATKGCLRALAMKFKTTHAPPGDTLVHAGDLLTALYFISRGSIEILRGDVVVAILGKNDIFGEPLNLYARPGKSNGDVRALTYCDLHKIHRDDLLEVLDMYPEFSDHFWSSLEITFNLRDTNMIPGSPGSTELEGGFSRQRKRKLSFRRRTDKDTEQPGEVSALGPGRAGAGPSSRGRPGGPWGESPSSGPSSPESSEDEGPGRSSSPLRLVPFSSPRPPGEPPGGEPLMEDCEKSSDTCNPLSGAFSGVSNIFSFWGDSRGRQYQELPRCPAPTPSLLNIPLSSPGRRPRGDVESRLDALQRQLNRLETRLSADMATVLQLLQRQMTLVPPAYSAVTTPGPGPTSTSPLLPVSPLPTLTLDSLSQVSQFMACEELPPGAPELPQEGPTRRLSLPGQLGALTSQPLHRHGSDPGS
row,SMILES,"hERG current change (%, negative = inhibition) at 1uM [%]"
1,CN1CCC(OC(=O)COc2ccccc2)CC1.Cl,17.3
2,Fc1ccc(-n2c(-c3ccco3)n[nH]c2=S)cc1,13.6
3,Cc1ccc(OCC(=O)N/N=C/c2ccco2)cc1,0.843
4,CN(C)C(=O)CN1c2cccc3cccc(c23)S1(=O)=O,12.7
5,Cc1ccccc1NC(=O)NCC1CCN(c2ccc(S(=O)(=O)N3CCOCC3)cc2)CC1,8.85
6,COc1ccc(CCNC2=CC(=O)N(c3ccc(F)cc3)C2=O)cc1,19.1
7,Cc1cccn2c(=O)c3cc(C(=O)NCCCOC(C)C)sc3nc12,9.15
8,COc1ccc(/C=C2\N=C3CCCCCN3C2=O)cc1,14
9,CCOc1ccc(C(C)=O)cc1CSc1nnc(N)s1,12.6
10,Cc1ccc(C)c(N2CCN(CCCNC(=O)CCn3c(=O)c4cccn4c4cccnc43)CC2)c1,-44.1
11,Cn1ncc(N=Cc2ccc([N+](=O)[O-])cc2)c1C(=O)N1CCOCC1,3.23
12,Cc1[nH]nc(SCC(=O)Nc2cccc(O)c2)c1[N+](=O)[O-],13.7
13,O=C(NC(=O)c1cccc(Cl)c1)OC[C@@H]1CCCN2CCCCC12 (some centres unmarked),-49.6
14,C/C(=N\N(c1ccccc1)c1ccccc1)c1ccco1,5.01
15,Cn1nc(C(F)(F)F)cc1C(=O)NC1CCCCCC1,14.2
16,COc1cccc(N/C=C(\C#N)c2ccc(OCCCF)cc2)c1,16.1
17,Cc1ccsc1CN(C)Cc1nc(C2CC2)no1,10.8
18,Br.COc1ccc2c3c1O[C@H]1C[C@@H](O)C=C[C@@]31CCN(C)C2,10.4
19,Cc1cccc(OCCOc2ccc(/C=N/NC(=O)Cc3nnc(N)s3)cc2)c1,8.08
20,NC1=NC(c2ccc(Cl)cc2)C(C(=O)c2ccccc2)N1 (centres unmarked),-0.776
21,CCOc1ccc(/C=C\c2nc(O)c([N+](=O)[O-])c(=O)[nH]2)cc1OCC,12.2
22,COCCN(C(=O)COC(=O)CCOc1cccc(C)c1)c1c(N)n(Cc2ccccc2)c(=O)[nH]c1=O,23.5
23,C=CCn1c(-c2ccc(OC)c(OC)c2)cs/c1=N\c1ccccn1,13.3

row,SMILES,"hERG current change (%, negative = inhibition) at 1uM [%]"
1,CCn1cc(C(=O)c2ccccc2)c2ccccc21,2.01
2,COc1ccccc1C1NC(=O)NC(C)=C1C(=O)OCc1ccccc1 (centres unmarked),9.41
3,CN(CCCC1CCCC1)C(=O)c1cc(COc2ccc(F)cc2F)on1,8.03
4,O=C(OCC(=O)c1cccs1)c1cccc(C(=O)OCC(=O)c2cccs2)n1,5.8
5,Cc1ccc2c(c1)CCCN2CC(=O)Nc1cccc(S(=O)(=O)N2CCCC2)c1,-0.928
6,O=C(O)CCC(=O)Nc1ccc(C(=O)N2CCCCC2)cc1,23.9
7,O=[N+]([O-])c1ccc(Cl)c(-c2ccc(/C=N/n3cnnc3)o2)c1,11.1
8,Cc1ccc(-c2csc3nc(SCC(=O)N(C)C)n(Cc4ccccc4)c(=O)c23)cc1,8.4
9,O=C(Nc1ccc(N2CCCCCC2)cc1)c1ccccc1Cl,24.5
10,COC(=O)CN(C#N)c1nc(NC(C)C)nc(NC(C)C)n1,14.9
11,CC(C)(C)Nc1nc(N)nc(Cl)n1,9.06
12,CCCCNC(=O)c1ccccc1SCC(=O)NC1CCCCCCC1,7.73
13,CCC(Sc1nc(=O)cc(N)n1-c1ccccc1)C(=O)Nc1cc(C)on1 (centres unmarked),17.8
14,Cc1ccc(N(CC(=O)NC2CCCC2)C(=O)CCC(=O)Nc2ccccn2)cc1C,9.66
15,CC(C)=CCN1CCN(Cc2cnc(-c3ccccc3)s2)CC1CCO (centres unmarked),-3.26
16,COc1ccc(Br)cc1/C=C/c1ccc2cccc(O)c2n1,11
17,O=C(COC(=O)c1ccc(Cl)cc1Cl)Nc1cccc(S(=O)(=O)NC2=NCCC2)c1,1.97
18,CN1C(=O)NC(c2cccc([N+](=O)[O-])c2)C2=C1CC(C)(C)CC2=O (centres unmarked),7.83
19,O=C(CCN1C(=O)C2CCCCC2C1=O)Nc1nc2c(F)cc(F)cc2s1 (centres unmarked),13.9
20,Cl.c1ccc(CN(CC2=NCCN2)c2ccccc2)cc1,-2.85
21,CN(C)c1ccc(/C=C/C#N)cc1,-6.64
22,CN(C)C(=O)c1ccc(Nc2ncnc3sc4c(c23)CCCCC4)cc1,6.54
23,Cn1cccc1CC(=O)NNC(=S)NC(=O)c1ccc(F)cc1,9.41

row,SMILES,"hERG current change (%, negative = inhibition) at 1uM [%]"
1,CCC(C)NC(=O)C1CCN(S(=O)(=O)c2ccc3c(c2)CC(C)N3C(C)=O)CC1 (centres unmarked),1.68
2,COc1ccc(CN2CCC(n3nccc3NC(=O)C3CC3)CC2)c(OC)c1OC,-8.29
3,CC1=CCC2(CO)COC(c3ccccc3O)C1C2 (centres unmarked),2.28
4,CCCc1nnc(NC(=O)C2CC(=O)N(C3CCCC3)C2)s1 (centres unmarked),9.43
5,CCc1nc(CN(C)C(=O)C2CCC(=O)N(Cc3cccc(F)c3)C2)no1 (centres unmarked),9.2
6,Cc1cc(Br)ccc1S(=O)(=O)n1ccnc1C,1.01
7,COc1cccc(C(=O)N/N=C/c2cn[nH]c2-c2ccc(OC)cc2OC)c1,8.44
8,COc1ccccc1C1CC(c2ccc(Cl)cc2)Nc2ncnn21 (centres unmarked),-15.3
9,C/C(=N/NC(=O)c1nnn(-c2nonc2N)c1COc1ccccc1)c1ccccc1,8.3
10,Cc1cc(C)n(-c2cccc3cccnc23)n1,14.3
11,CC(=O)c1c(C)oc2ccc(N(C(C)=O)S(=O)(=O)c3ccc(Cl)c([N+](=O)[O-])c3)cc12,14
12,COc1ccc(-c2n[nH]c(=S)n2Cc2ccccc2)cc1,8.74
13,Cc1ccc(C(=O)CSc2n[nH]c(C)n2)cc1,7.53
14,Cc1ccc2c(c1)c1c3n2CCN(CC(N)=O)C3CCC1 (centres unmarked),15.8
15,COc1ccc2sc(-c3ccccc3OC)c(-c3ccc4c(c3)OCCO4)c2c1,12.9
16,Cc1noc(C)c1CCC(=O)NC1CCCN(Cc2ccc(CC(C)C)cc2)C1 (centres unmarked),-37.8
17,Cc1c(N(CC(=O)O)S(=O)(=O)c2ccccc2)c(=O)n(-c2ccccc2)n1C,20
18,COc1ccc(Cc2nnc(NC(=O)c3cccc(C)c3)s2)cc1,14
19,Cc1ccc(-c2noc(CN(C(=O)c3ccc4c(c3)OCO4)C(C)C)n2)cc1,13.1
20,Cc1ccc(NC(=O)c2ccc(S(=O)(=O)N3CCOCC3)cc2)nc1,-7.41
21,O=C(NC(NC(=S)Nc1ccccc1C(=O)O)C(Cl)(Cl)Cl)c1cccc([N+](=O)[O-])c1 (centres unmarked),11.2
22,CC(C)c1nc(SCC(=O)c2ccccc2)c2c(=O)n(C)c(=O)n(C)c2n1,10.7
23,COc1ccc2c(COC(=O)CNC(=O)C34CC5CC(CC(C5)C3)C4)cc(=O)oc2c1,2

row,SMILES,"hERG current change (%, negative = inhibition) at 1uM [%]"
1,Cc1nc(N2CCOCC2)c2c(C)c(C(=O)Nc3ccccc3Cl)sc2n1,8.76
2,COc1ccc(OC)c(/C=N\NC(=O)CC(=O)NCCc2ccccc2)c1,11.7
3,COCC(C)NC(=S)Nc1ccccc1[N+](=O)[O-] (centres unmarked),13.7
4,CCN(N=O)[C@@H](Cc1ccccc1)CN(N=O)[C@@H](Cc1ccccc1)CN(C)N=O.[Na+],13.4
5,COc1ccc([C@@H](C)NC(=O)c2ccc3oc(C(C)C)nc3c2)cc1,45.7
6,Cc1ccc(NS(=O)(=O)c2ccc(NC(=O)c3cccc(NC(=O)C(C)C)c3)cc2)cc1,10.1
7,O=C(Nc1ccc(S(=O)(=O)N2CCCC2)cc1Cl)C1=COCCO1,-1.24
8,CCNC(=O)c1cc(Br)ccc1Cl,11.9
9,CC1CCCCC1NC(=O)c1ccc2c(c1)OCCO2 (centres unmarked),12.4
10,CCNC(=O)c1ccc(=O)n(Cc2ccc(Cl)cc2Cl)c1,2.11
11,O=C1NC(=O)N(c2ccccc2)C(=O)/C1=C\c1ccccc1[N+](=O)[O-],14.1
12,CNC(=S)N/N=C(\C)c1ccc(C(C)(C)C)cc1,1.09
13,Cn1cc(Br)c(-c2cccc(NC(=O)CCCC(=O)O)c2)n1,13.5
14,CCn1c(COc2cc(C)cc(C)c2)nnc1SCC(=O)N1CCN(c2ccccc2)CC1,1.88
15,O=C(CN(C(=O)CCC(=O)Nc1nccs1)c1ccc2c(c1)OCCO2)NCc1ccco1,12.1
16,CCN(CC)CCNC(C(=O)Nc1cccc(C(C)=O)c1)c1ccccc1.O=C(O)C(=O)O (centres unmarked),-51.4
17,COc1ccc(NC(=S)N(CCc2c(C)[nH]c3ccc(C)cc23)Cc2cccnc2)cc1,3.84
18,CC(=O)Nc1ccc(NC(=O)c2nc(-c3ccccc3)oc2C)cc1,22.6
19,Cl.O=C(Nc1cccc(C(F)(F)F)c1)c1cccnc1N1CCN(c2ccccc2)CC1,11.9
20,CCCCC(=O)N/N=C/c1ccc(Sc2cccc3cccnc23)o1,-2.78
